Measured values reported in paper PMC4906230.
No constants are given. Whether binding was seen depends on the method and setting. In cells and extracts the contact can be indirect. Tags and fused reporters may be left off the sequences shown.

By UniProt entry, the sequences of proteins in these tests, tags left out.
UniProt Q14258: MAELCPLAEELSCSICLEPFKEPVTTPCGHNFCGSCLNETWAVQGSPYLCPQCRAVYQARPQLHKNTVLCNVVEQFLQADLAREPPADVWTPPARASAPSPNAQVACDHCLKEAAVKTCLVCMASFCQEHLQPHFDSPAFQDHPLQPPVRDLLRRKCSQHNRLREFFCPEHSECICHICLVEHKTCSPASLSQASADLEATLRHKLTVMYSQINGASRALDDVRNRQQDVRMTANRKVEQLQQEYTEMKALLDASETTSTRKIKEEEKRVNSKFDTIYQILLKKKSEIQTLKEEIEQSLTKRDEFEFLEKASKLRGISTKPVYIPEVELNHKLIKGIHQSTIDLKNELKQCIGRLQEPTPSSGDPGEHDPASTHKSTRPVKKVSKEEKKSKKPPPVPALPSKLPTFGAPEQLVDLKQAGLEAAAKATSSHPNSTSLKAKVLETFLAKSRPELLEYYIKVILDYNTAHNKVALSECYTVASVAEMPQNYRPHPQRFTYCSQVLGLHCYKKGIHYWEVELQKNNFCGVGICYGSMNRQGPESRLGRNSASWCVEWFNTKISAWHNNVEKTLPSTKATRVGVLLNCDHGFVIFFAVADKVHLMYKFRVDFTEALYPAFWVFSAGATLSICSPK

Experiments:
Flag-tagged A20 = biological target: T1, Flag-tagged A20 (UniProt P21580); test: co-IP; HEK293 cells transfected with epitope-tagged expression plasmids, lysed 24 h later; lysates immunoprecipitated with anti-Myc or anti-Flag beads and immunoblotted; in Fig. 7f,g with SDC4 overexpressed or knocked down by siRNA
T1 sequence: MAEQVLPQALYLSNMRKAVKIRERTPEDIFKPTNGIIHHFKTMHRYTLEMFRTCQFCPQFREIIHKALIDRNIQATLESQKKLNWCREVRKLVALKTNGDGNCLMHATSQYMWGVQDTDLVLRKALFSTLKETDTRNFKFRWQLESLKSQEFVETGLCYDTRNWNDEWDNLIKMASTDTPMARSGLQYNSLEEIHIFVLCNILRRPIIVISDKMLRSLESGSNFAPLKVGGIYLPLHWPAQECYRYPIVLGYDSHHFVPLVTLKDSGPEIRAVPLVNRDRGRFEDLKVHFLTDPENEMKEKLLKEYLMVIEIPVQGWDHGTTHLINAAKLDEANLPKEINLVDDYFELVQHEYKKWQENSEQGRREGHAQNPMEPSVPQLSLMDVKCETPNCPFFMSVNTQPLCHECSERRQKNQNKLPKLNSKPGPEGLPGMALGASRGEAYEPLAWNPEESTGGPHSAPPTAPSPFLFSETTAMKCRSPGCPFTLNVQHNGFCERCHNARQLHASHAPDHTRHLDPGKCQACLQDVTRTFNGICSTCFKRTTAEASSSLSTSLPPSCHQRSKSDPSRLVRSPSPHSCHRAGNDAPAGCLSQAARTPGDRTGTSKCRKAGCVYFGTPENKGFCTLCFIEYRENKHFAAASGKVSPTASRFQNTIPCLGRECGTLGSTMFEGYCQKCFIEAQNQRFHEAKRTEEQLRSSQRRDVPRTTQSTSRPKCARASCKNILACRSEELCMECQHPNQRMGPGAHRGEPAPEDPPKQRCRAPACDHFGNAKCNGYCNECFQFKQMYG

Flag-tagged TRIM25 = Flag-tagged TRIM25 (UniProt Q14258); test: as above

B1: Myc-tagged SDC4 (protein, UniProt P31431 19-198)
chain: ESIRETEVIDPQDLLEGRYFSGALPDDEDVVGPGQESDDFELSGSGDLDDLEDSMIGPEVVHPLVPLDNHIPERAGSGSQVPTEPKKLEENEVIPKRISPVEESEDVSNKVSMSSTVQGSNIFERTEVLAALIVGGIVGILFAVFLILLLMYRMKKKDEGSYDLGKKPIYKKAPTNEFYA
- binding (Flag-tagged A20): no binding
- binding (Flag-tagged TRIM25): no binding
